Data as given in PubChem BioAssay AID2147 (National Center for Advancing Translational Sciences (NCATS), 2009).
Among all 230,000 compounds or so, about 3,600 (1.6%) were called active. Inconclusive means that the source gave no clear call. Such entries were picked first, then a sample of the others. Calls come from the whole dose curve; as a rule, active = well fitted inhibition curve with a large enough effect (not every such curve was filed as active); inconclusive = small, poorly fitted or top-dose-only effect, or another doubt; inactive = no such curve, though single readings can be large or run the other way. Where the call is inconclusive, the potency comes from a doubtful curve fit.

What follows are molecules tested against Lysine-specific demethylase 4E (Homo sapiens) (UniProt B2RXH2) (assay: qHTS Assay for Inhibitors of Human Jumonji Domain Containing 2E (JMJD2E)). Settings: JMJD2E catalytic domain, FDH-coupled NADH fluorescence (FDH is formaldehyde dehydrogenase); series mostly up to 57.1 µM; activity change, negative = inhibition: at the top concentration.
Sequence of UniProt B2RXH2 (B2RXH2 whole entry, looked up, the tested form may be a part): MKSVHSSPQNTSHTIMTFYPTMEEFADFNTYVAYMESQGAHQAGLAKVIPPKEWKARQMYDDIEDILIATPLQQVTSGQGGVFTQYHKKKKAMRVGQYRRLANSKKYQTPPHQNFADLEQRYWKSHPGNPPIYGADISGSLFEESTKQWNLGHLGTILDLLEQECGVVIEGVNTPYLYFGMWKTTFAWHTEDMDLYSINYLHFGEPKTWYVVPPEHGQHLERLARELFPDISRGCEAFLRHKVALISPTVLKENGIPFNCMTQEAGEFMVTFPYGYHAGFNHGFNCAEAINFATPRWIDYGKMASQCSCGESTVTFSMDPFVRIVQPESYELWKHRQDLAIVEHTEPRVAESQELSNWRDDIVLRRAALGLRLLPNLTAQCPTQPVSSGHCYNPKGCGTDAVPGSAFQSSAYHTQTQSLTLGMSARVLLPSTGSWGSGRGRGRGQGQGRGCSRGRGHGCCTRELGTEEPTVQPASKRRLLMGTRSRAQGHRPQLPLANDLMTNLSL
Note: nearly all actives have a fitted effect of over 50% in size.
Potency is the fitted concentration of half-maximal effect; tags give direction and shape of the fitted curve.
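Throughout, for activity change, negative = inhibition: 0% = wells with enzyme and -100% = buffer wells without enzyme.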

Question: `S=c1[nH]nc(-c2cccc(Br)c2)o1` was tested. Which Potency did it give?
Answer: Its Potency is inconclusive: 35.5 µM [inhibitor, single point].

Question: For `CCCCCCCn1c2c(c(=N)c3c1CCC3)CCCC2`, which Potency is on record?
Answer: The Potency was active: 3.55 µM.

Question: With `COc1ccc(CCNC(=O)COC(=O)c2cc(S(=O)(=O)NCc3ccccc3)ccc2O)cc1OC` as the molecule, how does the Potency read?
Answer: Its Potency is inconclusive: 35.5 µM [inhibitor, single point].

Question: `CC1CCC(C(C)C)C(OC(=O)Cn2c(-c3ccccc3)[n+](C)c3ccccc32)C1` (stereo unspecified) was tested. Which Potency did it give?
Answer: The Potency was “inactive”.

Question: Which “activity change, negative = inhibition” value does the source give for `c1ccc(N(c2ccccc2)c2nc(N3CCOCC3)nc(N3CCOCC3)n2)cc1` here?
Answer: Its value is inactive: -1.11%.

Question: `CCCc1nc2oc3c(NCC4CCCO4)ncnc3c2c2c1COC(C)(C)C2` (stereo unspecified) was tested. Which Potency did it give?
Answer: Its Potency is inconclusive: 8.91 µM [inhibitor, full curve].

Question: For `CCOC(=O)c1cn(-c2nc(-c3ccc(Cl)cc3)cs2)c2c(F)c(N3CC(C)OC(C)C3)c(F)cc2c1=O` (stereo unspecified), which Potency is on record?
Answer: The Potency was inconclusive: 39.8 µM [inhibitor, single point].

Question: Which Potency does the source give for `Cc1nnc(NC(=O)CSc2ccc3nnc(-c4ccccn4)n3n2)s1` here?
Answer: The Potency was inconclusive: 35.5 µM [inhibitor, partial curve].

Question: Which “activity change, negative = inhibition” value does the source give for `COC(=O)CSc1cc([N+](=O)[O-])cc2c1c(C1OCCO1)nn2-c1ccccc1` here?
Answer: The value was inactive: 3.94%.

Question: With `O=C(COC(=O)COc1ccc(Br)cc1)Nc1cccnc1Cl` as the molecule, how does the Potency read?
Answer: The Potency was inconclusive: 25.1 µM [inhibitor, single point].

Question: Which “activity change, negative = inhibition” value does the source give for `Cc1ccc(CNC(=O)c2ccc3c(=O)n(CC4CCCO4)c(=S)[nH]c3c2)cc1` (stereo unspecified) here?
Answer: Its value is inactive: -0.195%.

Question: `O=C(c1ccccc1)c1ccc(N2CCOCC2)c(NC(=O)c2ccco2)c1` was tested. Which “activity change, negative = inhibition” value did it give?
Answer: Its value is inactive: -1.14%.

Question: With `COCCn1c(C)cc(C2=NNC(=Nc3ccccc3)SC2)c1C` as the molecule, how does the “activity change, negative = inhibition” value read?
Answer: The value was inactive: -26.1%.

Question: For `c1ccc2c(NC3C4CC5CC(C4)CC3C5)nc(N3CCOCC3)nc2c1` (stereo unspecified), which Potency is on record?
Answer: Its Potency is inconclusive: 35.5 µM [inhibitor, partial curve].

Question: With `COc1ccc(C(=O)Nc2nc(-c3cccs3)c(NC(C)=O)s2)cc1` as the molecule, how does the Potency read?
Answer: Its Potency is inconclusive: 35.5 µM [inhibitor, single point].

Question: `CCOC(=O)CN1C(=O)C2(OCCCO2)c2ccccc21` was tested. Which “activity change, negative = inhibition” value did it give?
Answer: Its value is inactive: 4.07%.

Question: For `CCOC(=O)Cn1c(=O)oc2cc(S(=O)(=O)Nc3ccc(F)cc3)ccc21`, which “activity change, negative = inhibition” value is on record?
Answer: The value was inactive: -1.26%.

Question: How did the Potency turn out when `Cc1ccc(-c2nn(-c3ccccc3)cc2C=O)o1` was run?
Answer: Its Potency is inconclusive: 17.8 µM [inhibitor, partial curve].

Question: `Cc1cc(/C=C\c2ccccc2)nc2ccccc12` was tested. Which Potency did it give?
Answer: The Potency was inconclusive: 35.5 µM [inhibitor, single point].

Question: How did the Potency turn out when `CC(C)NC(=O)c1ccc(-c2ccc(Cl)c(C(F)(F)F)c2)o1` was run?
Answer: The Potency was inconclusive: 39.8 µM [inhibitor, single point].

Question: Which Potency does the source give for `COc1ccc2[nH]c(=O)c(CN(C(=O)c3cccnc3)c3ccccc3C)cc2c1` here?
Answer: The Potency was inconclusive: 31.6 µM [inhibitor, partial curve].
